Results: PMC12040169 (PLOS Biology, 2025)
The other results are listed elsewhere or left out.

test system: T1, C. trachomatis L2/434/Bu expressing GFP (CTL2-GFP); set-up: species or system HeLa; C. trachomatis total inclusion area by high-content imaging, normalised to DMSO; settings: total inclusion area; 28.5 h, 10 µM; inhibitor
T1 construct: L2/434/Bu GFP intracellular growth in HeLa cells
Procedure, shortened: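 Following bulk GFP and resorufin fluorescence reads, infected cells were fixed, Hoechst-stained and imaged on a high-content platform. Inclusion total area and number per well served as growth proxies; nuclei counts indicated host viability. MICs were derived as for the fluorescence assay.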

SMILES	% of control remaining
CC1CCN(Cn2nc(COc3ccccc3)n(-c3ccccc3)c2=S)CC1 [CBK264247]	114.543
O=C(Nc1cc(Oc2cccnc2)cc([N+](=O)[O-])c1)c1cc2nc(-c3ccco3)cc(C(F)(F)F)n2n1 [CBK262534]	100.571
CCCc1nnc(SCC(=O)Nc2cccc(C(F)(F)F)c2)n1N [CBK028004]	94.449
Cc1cc(C)c2c(N)c(-c3ccncc3)sc2n1 [CBK288189]	114.278
Cc1c(NC(=O)CSc2nncn2C)ccc2nsnc12 [CBK269418]	60.1468
CN(C)c1ccc(-c2nccnc2NS(=O)(=O)c2ccccc2C(F)(F)F)cc1 [CBK050801]	88.8033
CSc1ncc(Cl)c(C(=O)Nc2sc3c(c2C(=O)NCc2ccccc2)CCCC3)n1 [CBK268976]	66.7402
CC(Oc1ccccc1)C(=O)Nc1ccccc1NC(=O)c1ccco1 (centres unmarked) [CBK269636]	90.0403
COc1ccc(C)cc1NC(=O)c1cnc2n(c1=O)CCS2 [CBK287383]	103.484
CCn1nc(C)c(-c2cncn2CC(C)N2CCCCC2)c1C (centres unmarked) [CBK281808]	96.9224
CCCN1CC(NS(=O)(=O)c2cc(-n3cccn3)ccc2OC)CC1=O (centres unmarked) [CBK307285]	77.9559
O=C1CC(c2ccccc2)c2c(c3ccccc3[nH]c2=O)O1 (centres unmarked) [CBK288237]	97.3463
O=S(=O)(c1ccc(C(F)(F)F)cc1Cl)N1CCCN(Cc2cccc3c2OCO3)CC1 [CBK063067]	48.8323
Cc1cnc(Nc2cccc(C3CCCN3C(=O)CCOc3ccccc3C)n2)s1 (centres unmarked) [CBK285972]	99.0225
CN(C)C(=O)c1cc(Br)cnc1NCCCn1ccnc1 [CBK076378]	53.5736
COCCn1ccnc1C1CCN(C(=O)Cc2ccc(O)c(F)c2)CC1 [CBK306649]	58.6709
COc1ccc(CCC(=O)N2CCCC2c2ccc(Cc3ccccc3F)cn2)cc1 (centres unmarked) [CBK285992]	105.756
COc1ccc(S(=O)(=O)N2CCN(Cc3ccc4c(c3)OCO4)CC2)c(Cl)c1Cl [CBK074433]	86.2587
CCOc1nnc(CN(CCC(N)=O)c2ccc(F)cc2)s1 [CBK305536]	71.6307
CC(C)Cn1c(-c2ccc(F)cc2)cnc1SC(C)C(=O)NC(N)=O (centres unmarked) [CBK295635]	80.5499
CN1CCCC1CCOc1ncccc1OCc1ccccc1 (centres unmarked) [CBK036313]	99.3414
COc1ccccc1CC(=O)Nc1ncccc1OCCCC#N [CBK304952]	45.1095
CC(=O)N1C[C@@H](c2cccc(C)c2)[C@@H]2CN(Cc3cccnc3)CC[C@@H]21 [CBK283368]	98.0855
Cn1c(C(=O)O)ccc1S(=O)(=O)NCc1ccco1 [CBK113686]	89.6237
CCOc1cc(/C=C2\SC(=N)NC2=O)cc(Cl)c1O [CBK262955]	51.039
CC(=O)Oc1ccc(NC(=O)CC2Nc3cc(C)c(C)cc3NC2=O)cc1 (centres unmarked) [CBK263088]	74.7387
Fc1ccccc1/C=N/Nc1nccnc1Cl [CBK261711]	85.8801

SMILES	% of control remaining
Cc1ccc(O)c(NC(=S)NC(=O)COc2ccccc2)c1 [CBK264373]	110.074
O=C(c1cccs1)N1CCC[C@H]1[C@H](O)c1nccs1 [CBK284285]	81.35
CC(C)(C)OC(=O)N1CCCN(c2ccc(S(=O)(=O)c3ccccc3)c([N+](=O)[O-])c2)CC1 [CBK138502]	85.2778
CC(=O)Nc1ccc(S(=O)(=O)N2CCN(c3ccc([N+](=O)[O-])c(N4CCOCC4)c3)CC2)cc1 [CBK264764]	98.3181
Cc1ccc(OCc2nnc(SCC(=O)c3ccc(Br)cc3)n2N)cc1 [CBK266482]	103.658
CC(=O)Nc1ccc(S(=O)(=O)N2CCN(S(=O)(=O)N3CCCCCC3)CC2)cc1 [CBK268983]	82.9138
COc1ccc(C(C)C)cc1-c1cnc2cccnc2c1N [CBK081211]	89.6285
Nc1nc(C2CC(N)C2)cc(N2CCC(Oc3ccccc3Cl)CC2)n1 (centres unmarked) [CBK307356]	14.8228
CC(C)n1c(CN2CCOCC2)nc2c1c(=O)n(C)c(=O)n2C [CBK306201]	58.6639
Cc1ccc(C2CCCN2C(=O)c2cccn(CC(=O)NC3CCCCC3)c2=O)cc1C (centres unmarked) [CBK286009]	99.5756
O=C(Nc1cccnc1)N1CCN(Cc2ccccc2)CC1 [CBK155663]	99.0275
c1coc(-c2nccnc2NCCc2c[nH]c3ccccc23)c1 [CBK037316]	115.953
CNC(=O)CN1CCN(c2cc(C#N)ccc2C(F)(F)F)CC1=O [CBK306441]	68.4616
O=c1[nH]nc2c(SC3CCCCC3)nccn12 [CBK288471]	30.1614
CC(=O)c1cccc(-n2c(CCC(=O)O)ccc2-c2ccc(Br)cc2)c1 [CBK131888]	100.07
C1CN=C(SCCCCSC2=NCCCN2)NC1 [CBK278223B]	101.704
O=C(/C=C/c1ccccc1)NC(NCc1cccnc1)C(Cl)(Cl)Cl (centres unmarked) [CBK261804]	61.6805
COc1ccc([C@@]23CC[C@@H](NC(=O)Nc4ccc5c(c4)OC(F)(F)O5)C[C@@H]2N(C)CC3)cc1OC [CBK073743T]	82.2098
CCCc1c(Cc2c(Cl)cccc2Cl)c(=O)n(C)n1C [CBK115466]	92.8685
Cc1cc(=O)n(C)c(=O)n1CCCCCN1CCCC1 [CBK027386]	57.5318
O=C(CCOc1ccccc1F)Nc1cnc(-c2ccc(F)cc2)c(-c2ccsc2)n1 [CBK036897]	114.651
O=C1CCC[C@]2(CN(Cc3ccccc3)C[C@H]2c2ccncc2)N1 [CBK283348]	117.491
O=C(CCC1COc2ccccc2O1)N1CCN(Cc2ccccc2)CC1 (centres unmarked) [CBK269767]	53.9814
O=C(O)c1ccc(-n2ncc3ccccc3c2=O)cc1 [CBK288229]	106.795
CC(C)(C)OC(=O)N1CCC(CNS(C)(=O)=O)CC1 [CBK003925]	100.133
CS(=O)(=O)N[C@H]1CCN2C(=O)c3cc(-c4ccc(Cl)cc4)ccc3NC(=O)[C@@H]2C1 [CBK289565]	80.8704
Cc1cccc(C)c1NC(=O)Nc1cc(N2CCNCC2)c2occc2c1 [CBK061748C]	85.1992

SMILES	% of control remaining
Fc1ccc(-c2c[nH]nc2C2CCOCC2)cc1 [CBK283464]	85.0977
CCc1nnc(SC(C)C(=O)N2CCCc3ccccc32)[nH]1 (centres unmarked) [CBK306009]	51.8581
COc1nccc(N2CCCC(CO)(CC3CC3)C2)c1C#N (centres unmarked) [CBK307553]	93.0182
C[C@]12CN(Cc3ccccc3)C[C@H]1NC(=O)c1ccccc1C2O (some centres unmarked) [CBK282302]	64.8079
O=C(COC(=O)c1cc(O)nc2ccccc12)c1ccc(Br)cc1 [CBK262125]	99.6147
O=C1C(=CNCCN2CCOCC2)C(=O)c2ccccc21 [CBK263008]	63.4167
CCOC(=O)c1sc(-c2ccccc2)nc1OCc1ccccc1Cl [CBK067727]	93.6805
CN(C)C(=O)c1cccc(S(=O)(=O)NCC2CCCO2)c1 (centres unmarked) [CBK304867]	92.6353
CN(C)CCn1c(=O)[nH]c2ncc(-c3ccco3)nc21 [CBK064251]	75.1721
O=C(NCc1ccccc1)c1ccccc1NC(=O)C1CCCCC1C(=O)O (centres unmarked) [CBK269283]	97.9009
CC(NC(=O)C1C=CCN1S(C)(=O)=O)c1ccc2c(c1)CCC2 (centres unmarked) [CBK282667]	115.749
COc1cccc(C(=O)N2CCN(C(=O)Nc3ccc(C(F)(F)F)cc3)CC2)c1 [CBK154788]	95.295
CC(C)CCNC(=O)N(CCC#N)C1CCCCC1 [CBK156378]	92.1576
COC(=O)Nc1ccc(S(=O)(=O)N2CCCCC2C(=O)O)cc1 (centres unmarked) [CBK058086]	101.475
COc1cccc(C(=O)N2CCC(Cc3ccccc3-c3ccccc3C)(C(N)=O)CC2)c1 [CBK285722]	108.58
CCN(Cc1ccccc1)Cc1nc2ccccc2c(=O)[nH]1 [CBK283203]	84.7028
O=C(O)CN1C(=O)CC2(C1=O)C(=O)N(Cc1ccccc1)c1ccccc12 (centres unmarked) [CBK076093]	93.8858
Clc1cccc(CNc2nccnc2-c2ccoc2)c1 [CBK036616]	98.9832
O=C(CC1C(=O)N(c2ccccc2)C(=S)N1NC(=O)c1ccccn1)Nc1ccc(Cl)cc1 (centres unmarked) [CBK266711]	59.292
COc1ccc(Nc2ccc(-c3ccc4c(c3)OCO4)cn2)c(C)c1 [CBK036799]	82.7102
CCn1c(=O)n(CC(=O)N2CC(C)CC(C)C2)c2cccnc21 (centres unmarked) [CBK283845]	78.8459
Oc1ccc(CN2CCN(Cc3ccc(Br)s3)CC2)c2cccnc12 [CBK295645]	63.4045
Cc1nc2c(-c3cccs3)c(C)nn2c(O)c1C [CBK283728]	96.9462
O=C1COc2ccccc2C/C=C/CC2(CCCN(C(=O)CN3CCCC3=O)C2)CN1 (centres unmarked) [CBK292032]	98.776
CCOC(=O)c1sc(-c2ccc(C(C)(C)C)cc2)nc1O [CBK078538]	98.7865
CCn1c2ccccc2c2cc(NC(=O)CN(C)S(=O)(=O)c3ccc(C)cc3)ccc21 [CBK266756]	115.742
